This note sets out measurements from the supplement of paper PMC11417369.

The other results are listed elsewhere or left out.

The experiment concerns PF3D7_0420300 AP2 domain 1 (GST-tagged). Kind of experiment: gcPBM binding intensity (ln(normalized median fluorescence intensity)); higher = stronger DNA binding. An outline of the steps:
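Using an Agilent 4 × 180k array, primer-extended double-stranded 36-bp intergenic genomic probes and negative controls were exposed for 1 h to GST-fused P. falciparum DNA-binding domains expressed in E. coli. Binding was carried out in 1× PBS with 1% milk, 0.2 mg/ml BSA, 0.5% salmon testes DNA and 0.03% Triton X-100, and protein was detected with Alexa488 anti-GST antibody and a 488 nm scan. Binding intensity is the highest Masliner-normalised natural-log median intensity across replicate spots of either probe orientation.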
In the case of “GTATATATATTTGTACGTACATATTGTTGTAAACAC [XGTACX_site8833]”, the “gcPBM binding intensity (ln)” value was determined as 9.45.
Next, “AAGAGAGACATCAACACACATACGTATGTATAGAAA [CACACA_site1397]”: 9.49; “TTTTTTATTGTGATACGTATATTATTTTATGATTAA [GTGCAC_negctrl_site202]”: 9.31; “TTCATTTTAATAATATGTACATAATATATTTAAAAA [XGTACX_site634]”: 8.87.
The value for “ATTTTTAATCATTTACAACCTAGTGATTATACAAAT [CACACA_negctrl_site1089]” was 9.08.
Next, “CGTATGCGTATATACACACCCACGTATATATATAAA [CACACA_site3200]”: 9.31; “ATATAATAATTGTACACATGCACACACAAATATTAT [TGCATGCA_site204]”: 9.78.
For “ATAGCCAAAAATCATGCACACCTAAAAAAAAAAAAA [CACACA_site8826]”, the “gcPBM binding intensity (ln)” value was 9.25.
The value for “TATATTTATGTATATGTGCACATAAATTTAAGAATG [GTGCAC_site9512]” was 9.13; that for “GTATGTATAATATACACACTCACAAGCATTCAAATA [CACACA_site267]” was 9.37.
Next, “ATATAAACATGTTTGTGTACGTAATATGAAAAATAA [XGTACX_site8157]”: 9.36; “TTGTTTTTAAGAAAAACACACACTCCTGTTATTTTA [CACACA_site9230]”: 9.4.
Regarding “AAATATTATACAAAAAAAAAAAAAAAAAAAATATAT [CACACA_negctrl_site52]”, the “gcPBM binding intensity (ln)” value is 9.39.
For “ATTTTGTATATATTTTGTACATATTTTGTATATATT [XGTACX_site885]”, the “gcPBM binding intensity (ln)” value came out at 9.52.
Regarding “TATTAAATGAAACAAACACACATAGCCTTTAAATAT [CACACA_site1560]”, the “gcPBM binding intensity (ln)” value is 9.63.
For the sequence “ATTTTTTTTTTTATAGTGGAACCACATTTGCCATTT [CACACA_negctrl_site1247]”, the “gcPBM binding intensity (ln)” value is 9.28.
In the case of “TTAGGACAAAAAAAAATAAAAATAAAATAAAATAAT [CACACA_negctrl_site1613]”, the “gcPBM binding intensity (ln)” value was found to be 9.33.
The value for “ATAAAATAAAACAGAGCACACATTTTATTTACATTC [CACACA_site696]” was 9.52.
For the sequence “AAATTATATATATTTACATGCAATATAATGAAATAA [TGCATGCA_site229]”, the “gcPBM binding intensity (ln)” value turned out to be 9.21.
Next, “ATATATATATCATATTGTACATATTATTGTATAATC [XGTACX_site5020]”: 9.21; “GTTAAAATTTGTCAATGTACAGAAATAATAAAAAAA [XGTACX_site1879]”: 9.11; “AAAGTTTTTACCAAGTGTACATATATATATATATAT [XGTACX_site5786]”: 9.15.
Next, “TATTTTTTTTAGCGTACATGCAAAAAAAAAAAAAAA [TGCATGCA_site555]”: 8.48; GTTTATTTATTTTATGTGCACATATAACAAAAAAAA: 9.08; “TTTTTTCTTTAATACTCAATATGATAAAAGTAACAC [XGTACX_negctrl_site163]”: 8.91.
The value for “AAAAATAAAAAGAATTGTACATATAAATCATATACA [XGTACX_site6860]” was 9.25; that for “GACCCAATGAAAAGGTCACACATTTTTTCTTTTCGA [CACACA_site5074]” was 9.11.
In the case of “TAAAAATATATAAACAGTACATAAATTAAATAAATA [XGTACX_site6962]”, the “gcPBM binding intensity (ln)” value is 9.47.
Take “ACATATTTCCAATAATGTACATACAAAATAAGAATG [XGTACX_site2659]”: the “gcPBM binding intensity (ln)” value was determined as 9.31.
As for “TGTTCATTTATTTACTTACACACTTTATATATGTGG [CACACA_site1410]”, the “gcPBM binding intensity (ln)” value turned out to be 9.63.
The value for “TAAAAGTAGATATATACACACATAAATATAGATGTA [CACACA_site6457]” was 9.46.
The value for “ACAAAGTAAAATAATGCATGTAGGTATACATAATTA [TGCATGCA_site607]” was 9.43; that for “AATATTTTATATAAATGTACATTTATGAATAATATA [XGTACX_site8477]” was 9.09.
Next, “GTGCTAAAAGTATATGCACACACATATATATGCACA [CACACA_site8472]”: 9.66; “CATTTTATAAAAAGCACACATATAGTTATATGCACA [CACACA_site3691]”: 9.24.
Take “TAAATTATAATAAATACACACAAATTATAATTCTAT [CACACA_site3942]”: the “gcPBM binding intensity (ln)” value amounted to 9.44.
The value for “TTTGAATCCTTATATACACACATTATATAATATTAT [CACACA_site4472]” was 9.55.
On to “TATATATATATACATTGTACATTATTGATTATAACA [XGTACX_site1678]”, for which the “gcPBM binding intensity (ln)” value is 9.25.
The value for “AAATTAGAATTAGGAACACACATATTTATATTTATA [CACACA_site7450]” was 9.33; that for “TTTATTCTCCGACACACACACATATATTTATTTATA [CACACA_site7377]” was 9.95; that for “ATATATAAAAAATGTGGTACATTCATTTATTATACA [XGTACX_site3495]” was 9.19.
With “AATAAATAAATATATACACACATATATCTGTACATA [CACACA_site9034]”, the “gcPBM binding intensity (ln)” value came to 9.66.
Consider “AGGAAAAAAAAAATGTGTACTTAAAAAAAAAAAATT [XGTACX_site1471]”, for which the “gcPBM binding intensity (ln)” value was found to be 9.43.
The value for “CGTTTATATTTTAACTGTACTCAAAAAGTGCATTGT [XGTACX_site6072]” was 9.17.
